Source: PubChem BioAssay AID651820 (National Center for Advancing Translational Sciences (NCATS), 2012)
Several values for one entry are separate records, joined by “and”; a condition that tells them apart may be missing. Equal entries are not always repeated. In all, about 340,000 compounds went through this assay and about 12,000 (3.5%) were called active. This list was built around the results that the source calls inconclusive (neither active nor inactive); the mix of calls is not that of the screen. Calls follow the shape of the dose curve; as a rule, active = well fitted inhibition curve with a large enough effect; inconclusive = small, poorly fitted or top-dose-only effect, or another doubt; inactive = no such curve, though single readings can be large or run the other way. Where the call is inconclusive, the potency comes from a doubtful curve fit.

Assay: qHTS Assay for Inhibitors of Hepatitis C Virus (HCV)
Details: Huh7.5.1 HCVcc-Cre (HCVcc is cell-culture hepatitis C virus) infection, luciferase reporter, 44 h; activity change, negative = inhibition: at 41.8 µM (top of the series) unless noted
Outline: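 A cell-based infection assay in which seeded cells (1,000 per well) receive test compound after 4 h, are inoculated with HCVcc-Cre at approximately 0.5 moi, and are incubated 44 h before luminescence detection.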
% is scaled to controls: 0 for no effect and ±100 for the full control effect; potency is read from the fitted curve at half-maximal effect; tags tell the direction and shape of the fitted curve.

SMILES	activity change, negative = inhibition	Potency
COc1ccc(-n2c(SC3CCOC3=O)nc3ccccc32)cc1 (configuration not stated)	inactive: 2.2%	–
O=C(NN1C(=O)c2ccccc2NC1c1ccco1)c1ccc(Br)cc1 (configuration not stated)	inactive: 9.5%	–
C=C(C)c1cccc(C(C)(C)NC(=O)N2CCN(C/C=C/c3ccccc3)CC2)c1	–	inconclusive: 10 µM [inhibitor, partial curve]
CN(CC(=O)Nc1cccc(F)c1)C(=O)c1ccc2c(c1)CC(c1ccccc1)OC2=O (configuration not stated)	–	inconclusive: 7.08 µM [inhibitor, partial curve]
O=C(/C=C/c1ccc([N+](=O)[O-])cc1)NCCN1C(=O)S/C(=C\c2ccc(F)cc2)C1=O	inactive: -24.9%	–
CC(=O)c1ccc(Oc2cc(-c3ccccc3)nc(-c3ccccc3)n2)cc1	–	inconclusive: 11.2 µM [inhibitor, partial curve]
CCN(CC)C(=O)c1cc2c(=O)c3cc(F)ccc3oc2nc1C	–	inconclusive: 35.5 µM [inhibitor, single point]
OCCNc1c2ccccc2nc2c(F)c(F)c(F)c(F)c12	–	inconclusive: 12.6 µM [inhibitor, partial curve]
C=CCn1c(-c2ccccc2)ccc(C#N)c1=O	–	inconclusive: 31.6 µM [inhibitor, single point]
CC(C)CNC(=S)NC(=O)c1ccc(F)cc1	inactive: -19%	–
COCCN(C(=O)C1CC1)c1nnc(-c2ccc(C)cc2)s1	inactive: -21.8%	–
CC(=O)Nc1ccc(C(=O)Nc2cccc(S(=O)(=O)N(C)c3ccccc3)c2)cc1	–	inconclusive: 22.4 µM [inhibitor, single point]
COC(=O)c1c(NC(=O)COC(=O)c2ccc(O)cc2)sc2c1CCCCC2	–	active: 3.16 µM
Cc1onc(-c2c(F)cccc2Cl)c1C(=O)Nc1nnc(C(F)(F)F)s1	–	inconclusive: 20 µM [inhibitor, single point]
CC(Oc1ccc2ccccc2c1)C(=O)NNC(=O)Nc1ccccc1F (configuration not stated)	inactive: -0.435%	–
CCOC(=O)c1c(C)n(C)c2c1cc(OC(C)=O)c1ccccc12	–	inconclusive: 8.91 µM [inhibitor, partial curve]
O=C(NCc1ccco1)C1CCN(C(=O)c2cc3sccc3n2Cc2ccc(F)cc2)CC1	–	inconclusive: 501 nM [inhibitor, full curve, poor fit] and inconclusive: 31.6 µM [inhibitor, single point]
COc1cc2ccccc2cc1C(=O)N(CCN(C)C)c1nc2c(F)cc(F)cc2s1	–	inconclusive: 2.82 µM [inhibitor, full curve]
CCN1C(=O)/C(=c2\sc3nc(=O)c(Cc4ccccc4)nn3c2=O)c2ccccc21	inactive: -0.311%	–
Cc1cc(O)c(-c2cc(C(=O)NCc3ccc4c(c3)OCO4)[nH]n2)cc1C	inactive: 12.1%	–
CCn1cc(C(=O)N2CCN(c3ccc(OC)cc3)CC2)c(=O)c2cc(S(=O)(=O)N3CCOCC3)ccc21	inactive: 10.6%	–
CCOc1ccc(CCNC(=O)CCn2ccc3cc(S(=O)(=O)N4CCCC4)ccc32)cc1	–	active: 12.6 µM
CCCCCN(C(=O)CCC(=O)OCc1cc(C)ccc1C)c1c(N)n(CCCC)c(=O)[nH]c1=O	–	inconclusive: 31.6 µM [inhibitor, single point]

SMILES	activity change, negative = inhibition	Potency
CS(=O)(=O)c1ccc(C(=O)Nc2nc(-c3ccco3)c(-c3ccco3)s2)cc1	–	inconclusive: 11.2 µM [inhibitor, single point]
CC(=O)Nc1cccc(-c2nc3ccc(NC(C)=O)cc3s2)c1	–	inconclusive: 0.501 µM [inhibitor, full curve, poor fit]
Cc1cccc(C)c1NC(=O)C(C)Sc1nnc(C)n1CC1CCCO1 (configuration not stated)	inactive: 14.7%	–
N#CCc1ccc(NS(=O)(=O)c2ccc(C3CCCCC3)cc2)cc1	–	inconclusive: 11.2 µM [inhibitor, partial curve, poor fit]
Cc1ccc(N(C)S(=O)(=O)c2cccc(C(=O)OCC(=O)N3CCCC(C)C3)c2)cc1 (configuration not stated)	–	inconclusive: 20 µM [inhibitor, single point]
CC(C)c1ccc(-n2c(-c3ccccc3)c[n+]3c2CCc2ccccc2-3)cc1	–	inconclusive: 3.55 µM [inhibitor, partial curve, poor fit]
CC(=O)Nc1sc(-c2ccccc2)nc1-c1ccccc1	–	active: 11.2 µM
CCOc1ccccc1N1CCN(C(=O)CCCN2C(=O)c3cccc4cccc(c34)C2=O)CC1	–	inconclusive: 31.6 µM [inhibitor, single point]
CC1CCCCN1C(=O)CSc1nnc(-c2c[nH]c3ccccc23)o1 (configuration not stated)	–	inconclusive: 14.1 µM [inhibitor, single point]
CCOc1ccc(NC(=O)CN2C(=O)COc3ccc(S(=O)(=O)N4CCCCC4)cc32)cc1	–	inconclusive: 8.91 µM [inhibitor, partial curve]
C/C=C/c1ccc(OCC(O)CN2CCCCCCC2)c(OC)c1 (configuration not stated)	–	inconclusive: 31.6 µM [inhibitor, single point]
COc1ccc(OC)c(C(=O)c2ccc(C(=O)Nc3cccc4ccccc34)cc2)c1	–	inconclusive: 1.26 µM [inhibitor, partial curve]
COC(=O)[C@H]1[C@H](CCc2ccccc2)NC(=O)N(Cc2ccccc2)[C@@H]1C	–	inconclusive: 2.82 µM [inhibitor, single point]
O=c1c2c(nc3cc(-c4cccc(Cl)c4)[nH]n13)CCC2	–	inconclusive: 7.94 µM [inhibitor, partial curve]
COc1ccc(Br)cc1CN(C)CC(=O)NCCc1ccc(S(N)(=O)=O)cc1	–	inconclusive: 31.6 µM [inhibitor, single point]
O=c1c2c(-c3cccs3)csc2ncn1/N=C/c1ccc(OC(F)F)cc1	–	inconclusive: 31.6 µM [inhibitor, single point]
Cc1nc(-c2ccc(F)cc2)c(CC(=O)N(C)CC(=O)Nc2ccccc2Br)s1	inactive: -0.536%	–
Cc1cc2nccc(-c3ccc(OCCCF)cc3)n2n1	–	inconclusive: 11.2 µM [inhibitor, single point]
S=C(c1ccc(-c2ccc(Br)cc2)o1)N1CCOCC1	inconclusive: -69.2% [inhibitor]	–
COc1ccc(Nc2nc3ccccc3n3cnnc23)cc1Cl	–	inconclusive: 5.62 µM [inhibitor, full curve, poor fit]
Cc1cc(=O)oc2cc(OCC(=O)OCC(=O)Nc3ccccc3F)ccc12	inactive: -5.74%	–
Cc1ccc(-n2nnnc2SCC(=O)Nc2ccc(N3CCN(C)CC3)cc2)c(C)c1	inactive: -16.1%	–
COC(=O)c1[nH]c2ccc(F)cc2c1NC(=O)CCN1CCN(Cc2ccc3c(c2)OCO3)CC1	–	inconclusive: 22.4 µM [inhibitor, single point]

SMILES	activity change, negative = inhibition	Potency
Cc1ccccc1C(=O)Oc1ccc(Cl)cc1C(=S)N1CCOCC1	–	inconclusive: 5.62 µM [inhibitor, single point]
NC(=O)c1ccccc1OCCOc1ccc(Br)cc1	–	inconclusive: 31.6 µM [inhibitor, single point]
O=C(Nc1ccc(Cc2ccncc2)cc1)c1ccc(S(=O)(=O)N2CCCC2)cc1	–	active: 5.01 µM
CC(=O)Nc1ccc2c(c1)CCCC2	inactive: 10.8%	–
CCOC(=O)c1sc(NC(=O)CN2C(=O)c3cccc4cccc(c34)C2=O)nc1C	–	inconclusive: 31.6 µM [inhibitor, single point]
O=C(NC1CCCC1)C(c1ccncc1)N(Cc1ccccc1)C(=O)c1ccc(-c2ccccc2)[nH]1 (configuration not stated)	–	inconclusive: 31.6 µM [inhibitor, single point]
CCOC(C(=O)OCCC[N+](C)(CC)CC)(c1ccccc1)c1ccccc1	inactive: -2.59%	–
C[C@@H]1C[C@H]2[C@@H]3CCC4=CC(=O)C=C[C@]4(C)[C@@]3(F)[C@@H](O)C[C@]2(C)[C@@]1(O)C(=O)COP(=O)(O)O	–	inactive
CNc1nc(C)c(C(=O)OCc2ccccc2)s1	–	inconclusive: 14.1 µM [inhibitor, partial curve]
Cc1ccc(S(=O)(=O)N2CCC3(CC2)OCCO3)cc1	inactive: 9.88%	–
CC(C)CC(=O)Nc1c(C(=O)N2CCN(Cc3ccccc3)CC2)oc2ccccc12	–	inconclusive: 2.82 µM [inhibitor, single point]
COc1cccc(OCC(=O)Nc2ccccc2-c2ccccc2)c1	–	inconclusive: 14.1 µM [inhibitor, single point]
COc1ccc(/C=N/NC(=O)c2nc(-c3ccccc3)n(-c3ccccc3)n2)c(O)c1	–	inconclusive: 11.2 µM [inhibitor, single point]
COc1ccc2oc(C(=O)OCC(=O)NCc3ccco3)c(C)c2c1	inconclusive: -45.5% [inhibitor]	–
CCCCOC(=O)C(C#N)c1nc2ccccc2nc1N1CCOCC1 (configuration not stated)	–	inconclusive: 5.62 µM [inhibitor, single point]
COC(=O)c1c(NC(=O)CC2SC(N)=NC2=O)sc2c1CCCC2 (configuration not stated)	–	inconclusive: 31.6 µM [inhibitor, single point]
O=C(Nc1cccc(NC(=O)c2ccccc2Cl)c1)c1cccs1	–	inconclusive: 14.1 µM [inhibitor, single point]
Clc1ccc2[nH]c3c(NCCN4CCOCC4)ncnc3c2c1	–	inconclusive: 31.6 µM [inhibitor, single point]
O=C(CCC(=O)N1CCOCC1)NCCc1ccccc1	inactive: -1.26%	–
Cc1nonc1NC(=O)CSc1nc2c(C)cccc2cc1C#N	–	inconclusive: 12.6 µM [inhibitor, single point]
Cc1csc(-c2cnn(-c3ccccc3)c2NC(=O)c2cccc(C(F)(F)F)c2)n1	–	inconclusive: 31.6 µM [inhibitor, single point]
